Experimental findings from the BET-seq Pho4 binding data (Le et al. 2018) are described below.

This is one part of the list. These are noisy estimates, calculated here from bound and input reads.

This assay deals with T1, Pho4 (S. cerevisiae) (UniProt P07270).
T1 sequence: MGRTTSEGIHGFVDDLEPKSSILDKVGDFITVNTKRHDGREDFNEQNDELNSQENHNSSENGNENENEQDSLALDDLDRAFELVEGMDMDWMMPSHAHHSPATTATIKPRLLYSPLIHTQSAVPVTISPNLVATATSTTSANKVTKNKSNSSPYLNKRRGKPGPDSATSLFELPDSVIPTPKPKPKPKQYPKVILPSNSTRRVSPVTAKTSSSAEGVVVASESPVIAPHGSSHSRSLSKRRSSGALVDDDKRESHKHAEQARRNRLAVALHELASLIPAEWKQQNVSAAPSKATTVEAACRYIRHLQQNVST
Put plainly: relative binding free energy (BET-seq); higher = weaker binding. The following applies: reference: library average.
Turning to CAGGGCACGTGGAGAT, the “relative binding free energy” value was -0.07 kcal/mol.
TGGGGCACGTGATTGG: the “relative binding free energy” value came to 0.02 kcal/mol.
Regarding CAGTGCACGTGCGGTT, the “relative binding free energy” value is -0.08 kcal/mol.
The figure for GGGGCCACGTGTTCGG is 0.01 kcal/mol.
Take CACGTCACGTGGATGG: the “relative binding free energy” value turned out to be 0.21 kcal/mol.
With CTTTGCACGTGAATGT the figure was 0.24 kcal/mol.
With TTTGGCACGTGTTGAT, the “relative binding free energy” value was -0.04 kcal/mol.
With CTTAGCACGTGGGAGC the figure was -0.05 kcal/mol; with TTGGGCACGTGAGCTT, 0.16 kcal/mol.
Turning to TAGTTCACGTGTATGC, the “relative binding free energy” value came out at 0.32 kcal/mol.
Turning to ATTCACACGTGGTTTG, the “relative binding free energy” value turned out to be 0.08 kcal/mol.
The figure for GTTAACACGTGGTGTT is -0.01 kcal/mol; for TGGCTCACGTGGGCAG it is -0.03 kcal/mol.
Take TGGGTCACGTGCGCGT: the “relative binding free energy” value was found to be 0.04 kcal/mol.
The figure for AACGTCACGTGGAGTG is 0 kcal/mol.
Take TTTTACACGTGAAAGG: the “relative binding free energy” value is 0.4 kcal/mol.
The figure for TGCACCACGTGAGTGG is 0.23 kcal/mol; for AGGTTCACGTGTATCA it is 0.33 kcal/mol.
GCGGTCACGTGGTTAG: the “relative binding free energy” value was determined as 0.15 kcal/mol.
The figure for AGTTGCACGTGTCATT is -0.11 kcal/mol; for TCGGGCACGTGGATTT it is -0.06 kcal/mol; for GCCGTCACGTGGGGGG it is -0.04 kcal/mol.
With ATCTTCACGTGATGGT the figure was 0.12 kcal/mol.
With GTGTACACGTGGGTAG, the “relative binding free energy” value was -0.01 kcal/mol.
CTTACCACGTGAGTTG: the “relative binding free energy” value stood at 0.42 kcal/mol.
The figure for GTGCTCACGTGTAGTG is 0.25 kcal/mol.
As for GGGACCACGTGGATTG, the “relative binding free energy” value worked out at 0.07 kcal/mol.
Consider CGAGGCACGTGTATGT, for which the “relative binding free energy” value is -0.11 kcal/mol.
TGAGACACGTGGCGGA: the “relative binding free energy” value is -0.06 kcal/mol.
With TTGGTCACGTGGTGCA the figure was 0.05 kcal/mol.
On to GTAGTCACGTGTTCAG, for which the “relative binding free energy” value came to 0.18 kcal/mol.
With TATGACACGTGGTCGA the figure was 0.02 kcal/mol; with AAACGCACGTGGGGTA, -0.26 kcal/mol; with CATATCACGTGTGGTG, 0.22 kcal/mol.
For TAGTTCACGTGGGATA, the “relative binding free energy” value worked out at 0.12 kcal/mol.
TTGTTCACGTGGATCT: the “relative binding free energy” value was found to be 0.26 kcal/mol.
With TCTGTCACGTGTTCGG, the “relative binding free energy” value was -0.01 kcal/mol.
For CGGGTCACGTGCAGGA, the “relative binding free energy” value turned out to be 0.04 kcal/mol.
TGCGCCACGTGTGCGG: the “relative binding free energy” value was -0.18 kcal/mol.
With AGTAGCACGTGGAGGT the figure was -0.14 kcal/mol.
With GGGTGCACGTGATATC the figure was 0.32 kcal/mol; with ATTTTCACGTGCCGGG, 0.21 kcal/mol.
With TAGATCACGTGTCGTT the figure was 0.05 kcal/mol; with AGATTCACGTGGATAT, 0.28 kcal/mol; with GTATTCACGTGGATGG, 0.14 kcal/mol.
In the case of GTACACACGTGTTTTG, the “relative binding free energy” value worked out at 0.06 kcal/mol.
Consider TCTTGCACGTGTGATG, for which the “relative binding free energy” value amounted to 0.19 kcal/mol.
With TACGGCACGTGGTTAG, the “relative binding free energy” value is -0.17 kcal/mol.
Turning to TTGCACACGTGGGTGA, the “relative binding free energy” value was -0.1 kcal/mol.
The figure for TAGAGCACGTGGCGGG is -0.26 kcal/mol; for CTGTTCACGTGAAAAG it is 0.65 kcal/mol.
For the sequence GGTGCCACGTGGCGGC, the “relative binding free energy” value is -0.15 kcal/mol.
Regarding TATGGCACGTGTGATG, the “relative binding free energy” value turned out to be 0.04 kcal/mol.
The figure for GTGCGCACGTGTATGG is -0.1 kcal/mol; for TGCGGCACGTGAGGGG it is 0.19 kcal/mol.
Regarding TATGTCACGTGGGGAT, the “relative binding free energy” value was -0.01 kcal/mol.
GAGGTCACGTGTCGGG: the “relative binding free energy” value was 0.09 kcal/mol.
With GAGGGCACGTGAGACG the figure was 0.12 kcal/mol; with TATCGCACGTGTGGTA, -0.04 kcal/mol; with TTTTACACGTGCGATT, 0.21 kcal/mol.
In the case of GTTGTCACGTGACGCT, the “relative binding free energy” value stood at 0.31 kcal/mol.
Turning to TTTTACACGTGCGATG, the “relative binding free energy” value is -0.03 kcal/mol.
TTCAACACGTGGGCGT: the “relative binding free energy” value is 0 kcal/mol.
With GAGGGCACGTGGCGCT, the “relative binding free energy” value is -0.09 kcal/mol.
For the sequence TGTAACACGTGTCGGA, the “relative binding free energy” value came out at 0.08 kcal/mol.
In the case of CGAGTCACGTGTCGTT, the “relative binding free energy” value turned out to be 0.13 kcal/mol.
The figure for GGTATCACGTGTCGTT is 0.19 kcal/mol; for CCGTTCACGTGGTTGG it is 0.19 kcal/mol.
Consider AGGGTCACGTGTCGGA, for which the “relative binding free energy” value came to 0.18 kcal/mol.
In the case of AGGGTCACGTGGGCGG, the “relative binding free energy” value is -0.02 kcal/mol.
The figure for TGATGCACGTGAGTGG is 0.27 kcal/mol.
For the sequence GGTGTCACGTGGTAGG, the “relative binding free energy” value turned out to be 0.04 kcal/mol.
The figure for TATGACACGTGGAGTG is -0.09 kcal/mol; for TAATGCACGTGTTGAA it is -0.07 kcal/mol; for TTTGGCACGTGTACGC it is -0.08 kcal/mol.
As for AGGTGCACGTGGACGA, the “relative binding free energy” value was -0.04 kcal/mol.
With CGCGGCACGTGGAGGC the figure was 0.05 kcal/mol; with TTCAACACGTGGCGGG, 0.09 kcal/mol; with AGTGCCACGTGGCGTT, -0.32 kcal/mol.
With GTTATCACGTGGATGT, the “relative binding free energy” value stood at 0.3 kcal/mol.
Turning to ATTTTCACGTGAATCA, the “relative binding free energy” value is 0.41 kcal/mol.
With GGGTGCACGTGATGAA the figure was 0.17 kcal/mol; with TTAATCACGTGGTCAA, 0.07 kcal/mol; with TTCATCACGTGGTGTC, 0.1 kcal/mol.
In the case of TGATTCACGTGTTCGA, the “relative binding free energy” value is 0.25 kcal/mol.
Regarding CTGATCACGTGGCGTG, the “relative binding free energy” value worked out at 0.11 kcal/mol.
As for TAATACACGTGAAATG, the “relative binding free energy” value is 0.42 kcal/mol.
In the case of TAGGTCACGTGAGGGT, the “relative binding free energy” value stood at 0.36 kcal/mol.
The figure for TGAGTCACGTGTGAGG is 0.1 kcal/mol; for GTTAACACGTGGTCTT it is -0.12 kcal/mol.
With ATTTTCACGTGAGAGT the figure was 0.33 kcal/mol.
The figure for TAGGGCACGTGTAGAG is 0.02 kcal/mol; for TTTGCCACGTGTTATA it is -0.14 kcal/mol; for GGGGCCACGTGATTTT it is 0.19 kcal/mol.
For the sequence AGAGGCACGTGGTGTA, the “relative binding free energy” value was -0.12 kcal/mol.
With CATGGCACGTGTCGGT the figure was -0.03 kcal/mol; with AATTGCACGTGGCAAG, -0.05 kcal/mol; with TTATACACGTGGGTAA, -0.1 kcal/mol.
Regarding GCTTGCACGTGTGATT, the “relative binding free energy” value is 0.1 kcal/mol.
For the sequence GTGTGCACGTGTTATG, the “relative binding free energy” value was 0.14 kcal/mol.
The figure for ATGTGCACGTGGGCAG is -0.24 kcal/mol.
As to AGGTTCACGTGATCCG, the “relative binding free energy” value was determined as 0.38 kcal/mol.
As to CTTGGCACGTGCGTAG, the “relative binding free energy” value was -0.26 kcal/mol.
In the case of GTAAGCACGTGTTCGG, the “relative binding free energy” value was determined as 0.01 kcal/mol.
The figure for CTTTGCACGTGCAGGT is 0.01 kcal/mol; for CATTCCACGTGGGTGT it is 0.03 kcal/mol.
The figure for CTGAACACGTGATGTG is 0.15 kcal/mol; for ATGGGCACGTGGACGG it is -0.15 kcal/mol; for GTTTACACGTGAATGT it is 0.26 kcal/mol.
With TGTCGCACGTGGCGGA the figure was -0.16 kcal/mol; with GCGGGCACGTGAGTGG, 0.18 kcal/mol; with TTTGGCACGTGTAAAT, 0.07 kcal/mol.
As to GAGTTCACGTGAGAGT, the “relative binding free energy” value is 0.39 kcal/mol.
The figure for GATGGCACGTGTGAAG is 0.08 kcal/mol; for AGTAGCACGTGATAGA it is 0.02 kcal/mol.
